Test results as given in the supplement of paper PMC12423691.
The list shows a part of the results. Binding of human transcription factors and regulators to the viral nucleoprotein by AlphaScreen, crude cell-free proteins, amounts not normalised, one pass. Fold of the Venus control; higher = more signal. No active / inactive call. Single-pass screen; sequences are the whole Swiss-Prot entries looked up by name.

B1: RUNX2, Q13950 (protein)
chain: MASNSLFSTVTPCQQNFFWDPSTSRRFSPPSSSLQPGKMSDVSPVVAAQQQQQQQQQQQQQQQQQQQQQQQEAAAAAAAAAAAAAAAAAVPRLRPPHDNRTMVEIIADHPAELVRTDSPNFLCSVLPSHWRCNKTLPVAFKVVALGEVPDGTVVTVMAGNDENYSAELRNASAVMKNQVARFNDLRFVGRSGRGKSFTLTITVFTNPPQVATYHRAIKVTVDGPREPRRHRQKLDDSKPSLFSDRLSDLGRIPHPSMRVGVPPQNPRPSLNSAPSPFNPQGQSQITDPRQAQSSPPWSYDQSYPSYLSQMTSPSIHSTTPLSSTRGTGLPAITDVPRRISDDDTATSDFCLWPSTLSKKSQAGASELGPFSDPRQFPSISSLTESRFSNPRMHYPATFTYTPPVTSGMSLGMSATTHYHTYLPPPYPGSSQSQSGPFQTSSTPYLYYGTSSGSYQFPMVPGGDRSPSRMLPPCTTTSNGSTLLNPNLPNQNDGVDADGSHSSSPTVLNSSGRMDESVWRPY
B2: SIX2, Q9NPC8 (protein)
chain: MSMLPTFGFTQEQVACVCEVLQQGGNIERLGRFLWSLPACEHLHKNESVLKAKAVVAFHRGNFRELYKILESHQFSPHNHAKLQQLWLKAHYIEAEKLRGRPLGAVGKYRVRRKFPLPRSIWDGEETSYCFKEKSRSVLREWYAHNPYPSPREKRELAEATGLTTTQVSNWFKNRRQRDRAAEAKERENNENSNSNSHNPLNGSGKSVLGSSEDEKTPSGTPDHSSSSPALLLSPPPPGLPSLHSLGHPPGPSAVPVPVPGGGGADPLQHHHGLQDSILNPMSANLVDLGS
B3: ZNF493, Q6ZR52 (protein)
chain: MNECNVHKEGYNELNQYLTTTQSKIFQCDKYVKVFHKLLNSNRHNTKHTGKKPFKCKKCGKSFCMLLHLCQHKRIHIRENSYRCEECGKAFIWFSTLTRHRRVHTGEKSYKYECGKSFNQDSNLTTHKRIHTGQKPYKCEECGTSFYQFSYLTRHKLIHTREKPYKCEQYGKTFNQSSTLTGHKIIHNGEKPYKCEECGKAFSIFSTPTKHKIIHTEEKSHRCEEYCKAYKESSHLTTHKRIHTGEKPYKCEECGKAFSIFSTLTKHKIIHTEEKSHRCEECGKAYKESSHLTTHKRIHTGEKPYKCEECGKTFSVFSILTKHKIIHTEEKPYKCEECGKAFKRSSTLTKHRIIHTEEKPYKCEECGKAFNQSSTLSIHKIIHTGEKPYKCEECGKAFKRSSTLTIHKMIHTGEKPYKCEECGKAFNRSSHLTTHKRIHTGHKPYKCKECGKSFSVFSTLTKHKIIHTDKKPYKCEECGKAFNRSSILSIHKKIHTGEKPYKCEECGKAFKRSSHLAGHKQIHSVQKPYKCEECGKAFSIFSTLTKHKIIHTEEKPYKCEKCGKTFYRFSNLNTHKIIHTGEKPCKCEECGKAFNHSSNLIKHKLIHTGDKPYKCEACGKAFRRSSHLSRHKIIHIGIHTEETVQK
B4: SIM1, P81133 (protein)
chain: MKEKSKNAARTRREKENSEFYELAKLLPLPSAITSQLDKASIIRLTTSYLKMRVVFPEGLGEAWGHSSRTSPLDNVGRELGSHLLQTLDGFIFVVAPDGKIMYISETASVHLGLSQVELTGNSIYEYIHPADHDEMTAVLTAHQPYHSHFVQEYEIERSFFLRMKCVLAKRNAGLTCGGYKVIHCSGYLKIRQYSLDMSPFDGCYQNVGLVAVGHSLPPSAVTEIKLHSNMFMFRASLDMKLIFLDSRVAELTGYEPQDLIEKTLYHHVHGCDTFHLRCAHHLLLVKGQVTTKYYRFLAKHGGWVWVQSYATIVHNSRSSRPHCIVSVNYVLTDTEYKGLQLSLDQISASKPAFSYTSSSTPTMTDNRKGAKSRLSSSKSKSRTSPYPQYSGFHTERSESDHDSQWGGSPLTDTASPQLLDPADRPGSQHDASCAYRQFSDRSSLCYGFALDHSRLVEERHFHTQACEGGRCEAGRYFLGTPQAGREPWWGSRAALPLTKASPESREAYENSMPHIASVHRIHGRGHWDEDSVVSSPDPGSASESGDRYRTEQYQSSPHEPSKIETLIRATQQMIKEEENRLQLRKAPSDQLASINGAGKKHSLCFANYQQPPPTGEVCHGSALANTSPCDHIQQREGKMLSPHENDYDNSPTALSRISSPNSDRISKSSLILAKDYLHSDISPHQTAGDHPTVSPNCFGSHRQYFDKHAYTLTGYALEHLYDSETIRNYSLGCNGSHFDVTSHLRMQPDPAQGHKGTSVIITNGS
B5: MKL1, Q969V6 (protein)
chain: MPPLKSPAAFHEQRRSLERARTEDYLKRKIRSRPERSELVRMHILEETSAEPSLQAKQLKLKRARLADDLNEKIAQRPGPMELVEKNILPVESSLKEAIIVGQVNYPKVADSSSFDEDSSDALSPEQPASHESQGSVPSPLEARVSEPLLSATSASPTQVVSQLPMGRDSREMLFLAEQPPLPPPPLLPPSLTNGTTIPTAKSTPTLIKQSQPKSASEKSQRSKKAKELKPKVKKLKYHQYIPPDQKQDRGAPPMDSSYAKILQQQQLFLQLQILNQQQQQHHNYQAILPAPPKSAGEALGSSGTPPVRSLSTTNSSSSSGAPGPCGLARQNSTSLTGKPGALPANLDDMKVAELKQELKLRSLPVSGTKTELIERLRAYQDQISPVPGAPKAPAATSILHKAGEVVVAFPAARLSTGPALVAAGLAPAEVVVATVASSGVVKFGSTGSTPPVSPTPSERSLLSTGDENSTPGDTFGEMVTSPLTQLTLQASPLQILVKEEGPRAGSCCLSPGGRAELEGRDKDQMLQEKDKQIEALTRMLRQKQQLVERLKLQLEQEKRAQQPAPAPAPLGTPVKQENSFSSCQLSQQPLGPAHPFNPSLAAPATNHIDPCAVAPGPPSVVVKQEALQPEPEPVPAPQLLLGPQGPSLIKGVAPPTLITDSTGTHLVLTVTNKNADSPGLSSGSPQQPSSQPGSPAPAPSAQMDLEHPLQPLFGTPTSLLKKEPPGYEEAMSQQPKQQENGSSSQQMDDLFDILIQSGEISADFKEPPSLPGKEKPSPKTVCGSPLAAQPSPSAELPQAAPPPPGSPSLPGRLEDFLESSTGLPLLTSGHDGPEPLSLIDDLHSQMLSSTAILDHPPSPMDTSELHFVPEPSSTMGLDLADGHLDSMDWLELSSGGPVLSLAPLSTTAPSLFSTDFLDGHDLQLHWDSCL

target: nucleoprotein N of Crimean-Congo hemorrhagic fever virus; assay: AlphaScreen luminescence signal relative to Venus negative control (fold); higher = stronger binding to CCHFV N
Method: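 AlphaScreen binding of cell-free made, FLAG-GST-tagged human transcription factors and regulators (crude translation products) to biotinylated N protein; signal as fold of the FLAG-GST-Venus control. One pass.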

Row | Binder | AlphaScreen luminescence signal
1 | B1 | 1.95
2 | B2 | 2.42
3 | B3 | 6.05
4 | B4 | 2.7
5 | B5 | 2.37
